Measured values from PubChem BioAssay AID1030 (National Center for Advancing Translational Sciences (NCATS), 2008).
Hit rate of the full screen: of about 220,000 compounds, about 16,000 (7.3%) were called active. The inconclusive results got no clear call from the source; some entries with a clear call stand among them for comparison. The call rests on the fitted dose curve; in most records, active means well fitted inhibition curve with a large enough effect (not every such curve was filed as active); inconclusive means small, poorly fitted or top-dose-only effect, or another doubt; inactive means no such curve, though single readings can be large or run the other way. No potency is given beside an inconclusive call; the fits are too rough.

target: Aldehyde dehydrogenase 1A1 (Homo sapiens) (UniProt P00352); test: qHTS Assay for Inhibitors of Aldehyde Dehydrogenase 1 (ALDH1A1); details: Purified ALDH1A1, NADH fluorescence, propionaldehyde substrate; series mostly up to 75.3 µM; activity, negative = inhibition: at the top concentration;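 on activity, negative = inhibition: plate controls were no enzyme wells and a reference inhibitor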
Chain of UniProt P00352 (P00352 whole entry, looked up): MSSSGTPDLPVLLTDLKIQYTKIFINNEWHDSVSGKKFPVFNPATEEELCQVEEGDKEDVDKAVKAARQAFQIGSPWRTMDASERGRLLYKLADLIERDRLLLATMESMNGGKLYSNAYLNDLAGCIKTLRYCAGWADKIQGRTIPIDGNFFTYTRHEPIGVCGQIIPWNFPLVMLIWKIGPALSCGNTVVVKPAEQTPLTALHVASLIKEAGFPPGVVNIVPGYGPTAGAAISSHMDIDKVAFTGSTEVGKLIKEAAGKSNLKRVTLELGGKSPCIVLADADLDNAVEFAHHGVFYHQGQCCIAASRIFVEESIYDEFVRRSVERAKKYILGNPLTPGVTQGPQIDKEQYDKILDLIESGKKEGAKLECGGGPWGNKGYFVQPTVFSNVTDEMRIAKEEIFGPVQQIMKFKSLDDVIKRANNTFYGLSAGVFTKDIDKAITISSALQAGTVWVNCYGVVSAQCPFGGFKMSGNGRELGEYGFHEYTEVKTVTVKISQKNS
Potency means the concentration at half of the fitted maximal effect; tags describe the fitted curve by direction and shape.

Question: `CCN(CC)c1ncnnc1-c1ccccc1` was tested. Which “activity, negative = inhibition” value did it give?
Answer: inactive: -5.55%

Question: With `CCOc1ccc2[nH]c(=O)c(CN(Cc3ccc(C)cc3)C(=O)N3CCCC3)cc2c1` as the molecule, how does the Potency read?
Answer: inconclusive [inhibitor, partial curve, poor fit]

Question: Which Potency does the source give for `O=C1CN(C(=O)c2cnccn2)c2ccccc2N1` here?
Answer: inconclusive [inhibitor, single point]

Question: Which “activity, negative = inhibition” value does the source give for `Cc1csc2c(N(C)CCO)ncnc12` here?
Answer: inactive: -8.29%

Question: How did the Potency turn out when `O=C(COC(=O)/C=C/c1ccco1)NCCc1ccccc1` was run?
Answer: inconclusive [inhibitor, partial curve, poor fit]

Question: For `COc1ccc(-c2nnc(SCC(=O)O)n2C)cc1OC`, which “activity, negative = inhibition” value is on record?
Answer: inactive: 4.47%

Question: Which Potency does the source give for `COc1ccc(C(=O)N(Cc2ccco2)C(C(=O)NC2CCCC2)c2ccc(O)cc2)cc1OC` (stereo not drawn) here?
Answer: active: 22.4 µM

Question: How did the Potency turn out when `Cc1cc(O)c2c(c1O)C(=O)C(O)=C(O)C2=O` was run?
Answer: inconclusive [inhibitor, single point]

Question: With `Cc1cccc2cc(C(c3nnnn3Cc3ccccc3)N3CCN(C)CC3)c(=O)[nH]c12` (stereo not drawn) as the molecule, how does the Potency read?
Answer: inconclusive [inhibitor, single point]

Question: With `CN(C)/C=N/c1sc2c(c1C#N)CCCCC2` as the molecule, how does the Potency read?
Answer: active: 3.98 µM

Question: For `COCCOC(=O)CSc1ncccc1-c1nc2cc(C)c(C)cc2[nH]1`, which Potency is on record?
Answer: inconclusive [inhibitor, partial curve]

Question: How did the Potency turn out when `CCOC(=O)c1sc(NC(=O)Cc2ccc(F)cc2)nc1C` was run?
Answer: inconclusive [inhibitor, single point]

Question: `Brc1ccc(C2=CC(c3cccs3)n3ncnc3N2)cc1` (stereo not drawn) was tested. Which Potency did it give?
Answer: inconclusive [inhibitor, partial curve]

Question: With `O=C(Oc1cccc(Br)c1)c1cccnc1` as the molecule, how does the Potency read?
Answer: inconclusive [inhibitor, single point]

Question: `Cc1cc(C)n2nc(SC(C)C(=O)Nc3ccc(Cl)cn3)nc2n1` (stereo not drawn) was tested. Which Potency did it give?
Answer: inconclusive [inhibitor, single point]

Question: How did the Potency turn out when `O=C(/C=C/c1ccc(N2CCC(c3ccccc3)=N2)cc1)c1ccccc1` was run?
Answer: inconclusive [inhibitor, full curve]

Question: For `O=C(Cn1c(CC(=O)N2CCCC2)nc2ccccc21)NCc1ccccc1`, which “activity, negative = inhibition” value is on record?
Answer: inactive: 0.398%

Question: How did the Potency turn out when `C=CCN(CC=C)c1nc2ccccc2nc1C(C#N)C(=O)OCCOC` (stereo not drawn) was run?
Answer: inconclusive [inhibitor, single point]

Question: With `O=C(c1csnn1)N1CCC2(CCCN(c3ccccn3)C2)CC1` as the molecule, how does the Potency read?
Answer: inconclusive [inhibitor, single point]

Question: `Cc1ccc(C2C(C#N)=C(N)Oc3cc(C)oc(=O)c32)o1` (stereo not drawn) was tested. Which Potency did it give?
Answer: inconclusive [inhibitor, single point]

Question: For `CC(C)C[C@@H](CC(=O)N[C@@H](CCC(=O)O)CC(=O)O)NC(=O)[C@@H]1CNCC[C@H]1NC(=O)C[C@H](CCCN)NC(=O)C[C@H](CO)NC(=O)[C@@H]1CCCC[C@H]1N`, which “activity, negative = inhibition” value is on record?
Answer: inactive: -2.14%

Question: With `Cc1cc(C)nc(/N=C2/NC(=O)CS2)n1` as the molecule, how does the Potency read?
Answer: inconclusive [inhibitor, single point]

Question: With `COc1cccc(-c2noc(N)c2C#N)c1` as the molecule, how does the “activity, negative = inhibition” value read?
Answer: inactive: -12.2%

Question: How did the “activity, negative = inhibition” value turn out when `Cc1cc(C)c(O)c(-c2cc(C(=O)Nc3ccc(S(=O)(=O)N4CCOCC4)cc3)[nH]n2)c1` was run?
Answer: inactive: -16.2%

Question: With `Cc1cc(C)c2nc(NNC(=O)c3ccc(S(=O)(=O)N4CCCCC4)cc3)sc2c1` as the molecule, how does the Potency read?
Answer: inconclusive [inhibitor, single point]

Question: With `COCCn1c(=O)c(C)nc2cnc(Oc3cccc(Cl)c3)nc21` as the molecule, how does the Potency read?
Answer: inconclusive [inhibitor, partial curve]

Question: With `O=C1Nc2ccccc2/C1=C/C(=O)c1cccs1` as the molecule, how does the Potency read?
Answer: inconclusive [inhibitor, single point]

Question: With `CC1=NN(c2nc3ccccc3[nH]2)C(=O)/C1=C/N(C)C` as the molecule, how does the “activity, negative = inhibition” value read?
Answer: inactive: -7.46%

Question: `COCCOCCn1c(/C=C/c2ccccc2)nc2ccccc21` was tested. Which Potency did it give?
Answer: inconclusive [inhibitor, partial curve]

Question: For `CC[C@H]1C2=C3C(CC[C@H]4C(OC)OC[C@](C)([C@@H]34)N(C(=O)OC(C)(C)C)C2)C(CO)C1CO` (stereo partly drawn), which “activity, negative = inhibition” value is on record?
Answer: inactive: -6.41%

Question: How did the Potency turn out when `CCCOc1ccc(Cn2c(O)cc(=O)[nH]c2=O)cc1` was run?
Answer: inconclusive [inhibitor, single point]

Question: How did the Potency turn out when `CCn1c(SCc2nc3scc(-c4ccccc4)c3c(=O)[nH]2)nnc1-c1cccs1` was run?
Answer: inconclusive [inhibitor, single point]

Question: `Cc1cc(N2CCOCC2)nc2ccc(NC(=O)CCC(=O)N3CCCCC3)cc12` was tested. Which Potency did it give?
Answer: inconclusive [inhibitor, partial curve]

Question: How did the Potency turn out when `O=C(NCc1ccccn1)c1cccc(NS(=O)(=O)c2ccccc2F)c1` was run?
Answer: active: 1.26 µM

Question: How did the Potency turn out when `CCN(CC)S(=O)(=O)c1ccc(C(=O)N2CCN=C2SC)cc1` was run?
Answer: inconclusive [inhibitor, single point]

Question: With `CCc1ccc(OCC(O)CN2CCC(CN3C(=O)c4cccc5cccc(c45)C3=O)CC2)cc1` (stereo not drawn) as the molecule, how does the Potency read?
Answer: inconclusive [inhibitor, single point]

Question: Which Potency does the source give for `COc1ccc2oc(C(=O)OCC(=O)/C(C#N)=C(\C)N)c(C)c2c1` here?
Answer: inconclusive [inhibitor, single point]

Question: Which “activity, negative = inhibition” value does the source give for `Cn1c(=O)c2c(nc(N3CCOCC3)n2Cc2c(F)cccc2Cl)n(C)c1=O` here?
Answer: inactive: -2.87%

Question: For `COC[C@H]1O[C@@H](c2c(OC)cc(OC)cc2OC)[C@H](OC)[C@@H](OC)[C@@H]1OC`, which “activity, negative = inhibition” value is on record?
Answer: inactive: 5.67%

Question: With `C/C(Cn1cnc([N+](=O)[O-])n1)=N\NC(=O)c1cccc(F)c1` as the molecule, how does the Potency read?
Answer: inconclusive [inhibitor, single point]

Question: Which Potency does the source give for `O=C(O)CC1(CC(=O)Nc2cc(F)ccc2Cl)CCCCC1` here?
Answer: inconclusive [inhibitor, single point]

Question: How did the Potency turn out when `CCOC(=O)c1ccc(N2CCOCC2)c(NC(=O)c2c(-c3ccccc3)noc2C)c1` was run?
Answer: inconclusive [inhibitor, single point]

Question: How did the Potency turn out when `CC(C)C(=O)Nc1ccc2oc(-c3cc(F)c(F)cc3Cl)nc2c1` was run?
Answer: inconclusive [inhibitor, partial curve]

Question: `Nc1nc(SCc2nc3scc(-c4ccccc4)c3c(=O)[nH]2)n[nH]1` was tested. Which Potency did it give?
Answer: inconclusive [inhibitor, partial curve]

Question: For `COCc1cc(=O)n2[nH]c(-c3cccc(Br)c3)cc2n1`, which Potency is on record?
Answer: inconclusive [inhibitor, partial curve]

Question: For `CC1(C(=O)CSc2n[nH]c(-c3ccccc3Cl)n2)CCC(=O)O1` (stereo not drawn), which Potency is on record?
Answer: inconclusive [inhibitor, single point]

Question: With `CS(=O)(=O)c1ccc(C2=C(c3ccccc3)C(=O)OC2)cc1` as the molecule, how does the Potency read?
Answer: active: 2.82 µM

Question: Which Potency does the source give for `CCC1Oc2ccc(C)cc2N(CC(=O)NCCCN2CCN(Cc3ccccc3)CC2)C1=O` (stereo not drawn) here?
Answer: inconclusive [inhibitor, single point]

Question: Which Potency does the source give for `Cc1c(C(=O)NCC2CCCO2)oc2ccc(S(=O)(=O)N3CCCC3)cc12` (stereo not drawn) here?
Answer: inconclusive [inhibitor, single point]

Question: `COc1ccc(-c2noc(CCCC(=O)O)n2)cc1` was tested. Which “activity, negative = inhibition” value did it give?
Answer: inactive: 6.38%

Question: `COc1ccc(S(=O)(=O)Nc2cccc(C)n2)c2ccccc12` was tested. Which Potency did it give?
Answer: inconclusive [inhibitor, single point]

Question: How did the Potency turn out when `Cc1ccccc1NC(=S)NC(NC(=O)c1ccco1)C(Cl)(Cl)Cl` (stereo not drawn) was run?
Answer: active: 9.46 µM

Question: `CCCNC(=O)c1cn(CC)c2cc(N3CCN(C)CC3)c(F)cc2c1=O` was tested. Which Potency did it give?
Answer: inconclusive [inhibitor, partial curve]

Question: How did the Potency turn out when `O=C(Nc1cccs1)NC1CCCC1` was run?
Answer: active: 7.08 µM

Question: Which Potency does the source give for `O=C(NC(=S)Nc1ccc2c(c1)OCCO2)c1cccc2ccccc12` here?
Answer: active: 12.6 µM

Question: How did the Potency turn out when `CC(C)CNC(=O)CSc1nnc(CN2CCCCCC2=O)n1-c1ccccn1` was run?
Answer: inconclusive [inhibitor, single point]

Question: `CCOC(=O)c1[nH]c(C)c(/C(O)=C2\C(=O)C(=O)N(CCCn3ccnc3)C2c2ccncc2)c1C` (stereo not drawn) was tested. Which Potency did it give?
Answer: inconclusive [inhibitor, partial curve]

Question: `CCOC(=O)c1cccc(NC(=O)CSc2nnc(-c3ccoc3C)n2CC)c1` was tested. Which Potency did it give?
Answer: inconclusive [inhibitor, single point]

Question: With `CNC(=O)c1cc2c(s1)-c1ccccc1CC2` as the molecule, how does the Potency read?
Answer: inconclusive [inhibitor, partial curve]

Question: How did the Potency turn out when `Cc1ccc(C(=O)C2=C(O)C(=O)N(CCCn3ccnc3)C2c2ccc(OC(C)C)cc2)o1` (stereo not drawn) was run?
Answer: inconclusive [inhibitor, single point]

Question: How did the Potency turn out when `COC(=O)c1ccccc1NC(=O)c1ccc2c(c1)OCCO2` was run?
Answer: inconclusive [inhibitor, single point]

Question: For `Cc1ccc(OCC(=O)Nc2ccc3c(c2)CCC3)c([N+](=O)[O-])n1`, which Potency is on record?
Answer: inconclusive [inhibitor, partial curve]

Question: `O=C(/C=C/c1cn(-c2ccccc2)nc1-c1cccnc1)c1ccco1` was tested. Which Potency did it give?
Answer: inconclusive [inhibitor, single point]

Question: `CCOC(=O)c1c(NC(=O)C(Sc2ccccc2)c2ccccc2)sc(C(N)=O)c1C` (stereo not drawn) was tested. Which Potency did it give?
Answer: active: 14.1 µM

Question: How did the Potency turn out when `CCOC(=O)N1CCC(NC(=O)CSCc2cnn(-c3ccccc3)c2-n2cccc2)CC1` was run?
Answer: inconclusive [inhibitor, partial curve]

Question: How did the Potency turn out when `CNc1ccc(/C=C/C(=O)c2ccc3c(c2)OCCO3)cc1[N+](=O)[O-]` was run?
Answer: inconclusive [inhibitor, partial curve]

Question: Which “activity, negative = inhibition” value does the source give for `Cc1ccccc1CSCCC(=O)NCCc1ccccc1` here?
Answer: inactive: -11.5%

Question: How did the Potency turn out when `CC1=C(C(N)=O)N2C(=O)[C@@H](NC(=O)Cc3ccccc3)C2SC1` (stereo partly drawn) was run?
Answer: inconclusive [inhibitor, single point]
